Measurements taken from publication PMC4336329 (PLoS ONE, 2015).
The campaign covered roughly 310,000 compounds. About 14,000 (4.5%) showed an effect of 50% or more. Effects have a minus sign here. The list shows a part of the results.

Target: human ether-à-go-go-related gene (hERG) potassium channel (human, UniProt Q12809)
Assay: primary screen, population patch clamp on CHO cells stably expressing hERG
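Further: peak tail current of the secondary pulse compared with the same well before compound.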

Chain of human ether-à-go-go-related gene (hERG) potassium channel (Q12809 whole entry, looked up): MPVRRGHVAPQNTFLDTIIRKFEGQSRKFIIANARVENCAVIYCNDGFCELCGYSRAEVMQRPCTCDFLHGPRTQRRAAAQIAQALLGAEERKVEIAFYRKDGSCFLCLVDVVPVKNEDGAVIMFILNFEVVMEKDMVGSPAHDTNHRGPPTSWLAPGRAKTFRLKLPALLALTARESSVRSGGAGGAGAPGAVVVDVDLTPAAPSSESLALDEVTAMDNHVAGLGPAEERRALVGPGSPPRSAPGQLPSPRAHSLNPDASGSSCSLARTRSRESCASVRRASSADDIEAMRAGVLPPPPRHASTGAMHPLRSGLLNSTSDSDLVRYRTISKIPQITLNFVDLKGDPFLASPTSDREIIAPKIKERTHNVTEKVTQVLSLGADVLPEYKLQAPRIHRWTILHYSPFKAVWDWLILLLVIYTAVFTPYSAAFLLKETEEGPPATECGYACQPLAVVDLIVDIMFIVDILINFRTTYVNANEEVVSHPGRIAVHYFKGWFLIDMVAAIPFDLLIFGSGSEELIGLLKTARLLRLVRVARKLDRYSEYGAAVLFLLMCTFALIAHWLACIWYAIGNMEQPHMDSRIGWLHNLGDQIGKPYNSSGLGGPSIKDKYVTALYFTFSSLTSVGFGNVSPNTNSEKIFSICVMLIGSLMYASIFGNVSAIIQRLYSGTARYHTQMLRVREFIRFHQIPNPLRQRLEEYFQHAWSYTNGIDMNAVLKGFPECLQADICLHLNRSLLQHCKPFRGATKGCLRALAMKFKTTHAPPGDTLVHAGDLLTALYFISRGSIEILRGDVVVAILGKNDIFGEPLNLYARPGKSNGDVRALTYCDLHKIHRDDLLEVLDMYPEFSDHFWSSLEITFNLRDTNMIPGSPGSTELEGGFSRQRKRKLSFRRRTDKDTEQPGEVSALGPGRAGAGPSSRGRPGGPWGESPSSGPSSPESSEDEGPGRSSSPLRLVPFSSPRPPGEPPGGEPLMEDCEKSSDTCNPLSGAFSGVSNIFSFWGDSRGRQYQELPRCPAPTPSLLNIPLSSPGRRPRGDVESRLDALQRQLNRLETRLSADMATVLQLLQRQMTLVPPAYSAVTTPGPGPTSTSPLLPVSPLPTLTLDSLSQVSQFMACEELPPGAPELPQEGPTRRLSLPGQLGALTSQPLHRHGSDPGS

Row | SMILES | hERG current change (%, negative = inhibition) at 10uM [%]
1 | N#C/C(=C\Nc1ccc(F)c(Cl)c1)C(=O)C1CC1 | 9.37
2 | Cc1nc2c(C(=O)N3CCOCC3)cnn2c(C)c1Cc1cccc(Cl)c1 | -20
3 | Cc1cc(C(=O)OCC(=O)N2C(C)CCCC2C)c(C)o1 (stereo not shown) | 9.09
4 | O=C1CCN(CCc2ccccc2)CCN1[C@H](CSc1ccc(Br)cc1)Cc1ccccc1 | -74.6
5 | Cc1nc2cncc(Br)c2n1C | 3.58
6 | COc1cc(C(=O)NC(C)C2CC3CCC2C3)ccc1OC(F)F (stereo not shown) | -17.6
7 | O=C(Nc1ccc(Cl)cc1C(=O)c1ccccc1Cl)c1ccco1 | 12.7
8 | Cc1ccccc1C1CC(c2cccs2)=NN1S(C)(=O)=O (stereo not shown) | 24.7
9 | Nn1c(SCc2c(F)cccc2F)nnc1-c1ccccn1 | 2.69
10 | O=C(Nc1ccccc1C(=O)O)c1ccc(N2C(=O)C3CC=CCC3C2=O)cc1 (stereo not shown) | 21.3
11 | COC(=O)[C@H]1C[C@@H]1[C@H](N)c1ccccc1.Cl | 5.51
12 | CCOC(=O)C1C(=O)CC(C)(O)C(C(=O)OCC)C1c1ccc(Br)cc1 (stereo not shown) | -13.9
13 | COCCCNC(=O)c1cccc2c(=O)c(C)c(-c3ccccc3)oc12 | -11.3
14 | O=C(NCCN1CCN(C(=O)c2cccc(Br)c2)CC1)C(=O)NCc1ccccc1 | -70
15 | O=C(CN1CCN(Cc2ccccc2Cl)C1=O)NCc1ccco1 | 0.608
16 | Cc1cc(C)cc(NC(=O)Cn2ncn3c(cc4ccccc43)c2=O)c1 | -4.52
17 | Cc1ccc(CN(C)C(=O)CCc2c[nH]c3ccccc23)o1 | -10.8
18 | COCc1cc(N2CCOCC2)nc(-c2ccccc2)n1 | 17.4
19 | CCNC(=S)N1CCCC(C(N)=O)C1 (stereo not shown) | 10.5
20 | CC(C)[C@H](NC(=O)c1c(F)cccc1F)C(=O)N1CCN(c2ccc(F)cc2)CC1 | -54.2
21 | COc1ccc(S(=O)(=O)NCCc2cc3ccc(C)c(C)c3[nH]c2=O)cc1 | 17.2
22 | Cc1ccc(-c2nnn(CC(=O)N(Cc3ccccc3)C(C(=O)NC(C)(C)C)c3ccncc3)n2)o1 (stereo not shown) | -13.7

Row | SMILES | hERG current change (%, negative = inhibition) at 10uM [%]
23 | CCOc1ncccc1C(=O)N1CCN(S(=O)(=O)c2ccc(Br)cc2Cl)CC1 | 9.97
24 | O=C(CN1CCN(c2ccccn2)CC1)Nc1ccc(F)cc1.O=C(O)C(=O)O | -47.2
25 | CN1/C(=C\C(=O)Nc2cccnc2)c2ccccc2CC1(C)C | 1.82
26 | Cc1cccc(C(=O)NNS(=O)(=O)c2ccccc2)c1O | 9.14
27 | COc1cccc(C2(O)CC(C(F)(F)F)=NN2C(=O)c2ccccn2)c1 (stereo not shown) | -8.38
28 | N[C@@H](Cc1ccccc1)C(=O)N1C[C@H]2C[C@@H](C1)c1cccc(=O)n1C2 | 12.1
29 | CC(C)(C)C(=O)NC(=C(Cl)Cl)P(=O)(O)O | 13.6
30 | CCOC(=O)c1cc(-c2ccccc2)n(CC(=O)NC(C)(C)C)c1C | -20.9
31 | CCC1Oc2ccc(C)cc2N(CC(=O)N(Cc2ccc3c(c2)OCO3)CC2CCCO2)C1=O (stereo not shown) | -26.7
32 | COc1ccc(S(=O)(=O)N2CCOC2CNC(=O)C(=O)NCc2cccnc2)cc1OC (stereo not shown) | -3
33 | CC(=O)c1ccc(N2CCN(C(=O)CCCn3c(=O)[nH]c4ccc(Br)cc4c3=O)CC2)cc1 | -34.8
34 | CC(C)C1(C)C(=O)N=C2c3ccccc3C(=O)N21 (stereo not shown) | 12.3
35 | COc1ccc(NC(=O)CNC(=O)c2ccco2)cc1 | 6.88
36 | CC1CCCCC1NC(=O)Cn1nnc(-c2ccc(Cl)cc2)n1 (stereo not shown) | 4.54
37 | O=C(NCC(c1ccco1)N1CCOCC1)c1ccccc1 (stereo not shown) | 25.1
38 | CCNc1nc(NCC)nc(N(n2cnnc2)S(=O)(=O)c2ccc(C)cc2)n1 | -25.2
39 | O=C1C2ON(c3ccccc3)C(c3ccccn3)C2C(=O)N1c1ccc(Br)cc1 (stereo not shown) | 2.88
40 | CCN(C(=O)c1cc2c(=O)n3ccccc3nc2n1CCCOC)C1CCCCC1 | -2.32
41 | Cc1ccc(C)c(NC(=O)Cn2nnc(C(=O)NCc3ccco3)c2N)c1 | 0.00318
42 | Cc1ccc(Sc2nc(C)c([N+](=O)[O-])c(C)c2C#N)cc1 | 3.41
43 | Cc1nc(COc2cccc(Cl)c2)sc1C(=O)/C=C/N(C)C | -3.3
44 | COc1ccc(/C=N/NC(=O)c2nn(C)cc2Br)cc1CSCc1ccco1 | -50.6

Row | SMILES | hERG current change (%, negative = inhibition) at 10uM [%]
45 | CCc1cc(=O)[nH]c(SCC(=O)N2CCCC2)n1 | -2.26
46 | O=C(C1CC1)N1CCc2cc(Br)cc(S(=O)(=O)NCCCN3CCCCC3)c21 | -13.3
47 | CC1CC(Nc2cccc(O)c2)=CC(=O)O1 (stereo not shown) | 6.19
48 | COc1cc(O)c(C(CCN2CCCC2)c2cc(OC)c(OC)c(OC)c2)c(OC)c1 (stereo not shown) | -7.35
49 | CN(CC(=O)Nc1ccccc1C(F)(F)F)C(=O)C1=COCCO1 | -3
50 | Cc1ccc(-n2c(C)nnc2SCC(=O)NNC(=O)c2ccco2)cc1 | 25.4
51 | CSc1ccccc1NC(=O)c1cccs1 | -4.87
52 | NC(=O)C1CCN(C(=O)CSCc2ccccc2Cl)CC1 | 4.53
53 | COCCn1c(N)c(C(=O)NS(=O)(=O)c2ccc(C)cc2)c(=O)[nH]c1=O | 5.3
54 | CCNC(=S)NCCN1CCOCC1 | 10.4
55 | COc1ccc(CN2CC(C(=O)NCCC3=CCCCC3)CC2=O)cc1 (stereo not shown) | 7.77
56 | CC(C)(C#N)C(C)(C)c1nn[nH]n1 | 5.9
57 | O=C(N/C(=C/c1cccc([N+](=O)[O-])c1)C(=O)N1CCCCC1)c1ccco1 | -2.24
58 | Cc1ccc(NC(=O)CSc2nc3[nH]ncc3c(=O)[nH]2)c(C)c1 | 10.6
59 | OCCCn1c(CCNc2nc(-c3ccc(F)cc3)cs2)nc2cc(C(F)(F)F)ccc21 | -32.3
60 | O=C(CCn1c(=O)oc2ccccc21)NCCCN1CCOCC1 | 16.9
61 | O=C(CNC(=O)c1cccs1)N/N=C/c1c(F)cccc1Cl | 20.3
62 | CC(C)CN1CCC(=O)N([C@H](CSc2ccccc2)Cc2ccccc2)CC1 | -67.9
63 | Cc1sc2nc(-c3ccc(Br)cc3)oc(=O)c2c1C | 13.3
64 | C=CCn1c(CCc2cc(C(C)(C)C)c(O)c(C(C)(C)C)c2)n[nH]c1=S | 17.3
65 | CC1CCN(c2nc(Cl)nc(Nc3ccc([N+](=O)[O-])cc3)n2)CC1 | 9.49
66 | CC(=O)Nc1ccc(NC(=O)CC(NC(=O)c2ccccc2)c2ccccc2)cc1 (stereo not shown) | 17.4

Row | SMILES | hERG current change (%, negative = inhibition) at 10uM [%]
67 | Cc1ccc(NC(=O)CCN2CCN(C)CC2)cc1.Cl | 10.6
68 | Cn1c(=O)c2ncn(CC(=O)NCCC3=CCCCC3)c2n(C)c1=O | -0.718
69 | CC12CC(c3ccccc3O1)C(C(=O)N1CCOCC1)C(=O)N2 (stereo not shown) | 0.629
70 | C=CCn1c(=O)c2ccccc2n2c(SCC(=O)Nc3sc(C(=O)N(CC)CC)c(C)c3C(=O)OCC)nnc12 | -52.3
71 | O=C(CN1CCN(S(=O)(=O)c2ccccc2)CC1)NCc1ccccc1 | 8.36
72 | CCCOc1nc2c(c(=O)n(C)c(=O)n2C)n1CCC | 5.48
73 | CN(C)S(=O)(=O)c1ccc(N2CCCC2)c(C(=O)NNC(=O)c2ccc(Br)cc2)c1 | -26.5
74 | O=S(=O)(Cc1ccc(Cl)cc1)c1ncc(CO)n1Cc1ccccc1 | -5.69
75 | Oc1ccc(/C=N/n2cc(-c3ccccc3)[nH]c2=S)cc1 | 11
76 | CCCCCCNc1c([N+](=O)[O-])c(=O)sc2ccccc12 | 14
77 | Cc1ccc(S(=O)(=O)N2CCCC(C(=O)NCc3ccco3)C2)cc1Cl (stereo not shown) | -1.38
78 | Cc1c(Cl)cccc1NC(=O)CCN1CCOCC1 | 27.5
79 | C/C=C\C=C\C(=O)N1CC2(CC(c3cccc(NC(=O)CC(c4ccccc4)c4ccccc4)c3)=NO2)C[C@H]1C(N)=O (stereo partly shown) | 0.883
80 | C#CCOCCOCCOCCNc1nc(N2CCOCC2)nc(N2CCN(C(=O)CCCCCCCCCCNC(=O)Cn3cc(CCCCCN)nn3)CC2)n1 | 8.83
81 | Cc1ccc(NS(=O)(=O)c2ccc(NS(=O)(=O)c3cccs3)cc2)cc1 | -4.38
82 | O=c1[nH]c(O)c(N=Nc2ccc(SC(F)F)cc2)c(=O)[nH]1 | -11.2
83 | Cc1cc(C)c2oc(C(=O)NCc3ccccc3)cc(=O)c2c1 | 18.3
84 | COCCCN1C(=O)C(=O)/C(=C(/O)c2ccc(OC(C)C)c(C)c2)C1c1ccncc1 (stereo not shown) | 5.5
85 | COc1ccc(Cc2nc3ccc(C(=O)N(C)C(C)c4nccs4)cc3o2)cc1 (stereo not shown) | -1.6
86 | CCOC(=O)N1CCN(C(=O)c2ccc3c(Cl)c4c(nc3c2)CCCC4)CC1 | -25.1
87 | O=C(N=Nc1c(O)[nH]c2ccc(Br)cc12)c1ccccc1-n1cccc1 | -13.7
88 | COc1ccc(NC(=O)N2CCN(c3nc4ccccc4n3C(C)C)CC2)cc1 | -12
